Assay results from paper PMC10761038.
These are yes or no findings as the source states them, for the method shown. Binding seen in cells or lysates may run through a third protein. Some entries that bind do so weakly or less than the wild type.

By UniProt entry, the sequences of proteins in these tests, tags left out.
UniProt P35222: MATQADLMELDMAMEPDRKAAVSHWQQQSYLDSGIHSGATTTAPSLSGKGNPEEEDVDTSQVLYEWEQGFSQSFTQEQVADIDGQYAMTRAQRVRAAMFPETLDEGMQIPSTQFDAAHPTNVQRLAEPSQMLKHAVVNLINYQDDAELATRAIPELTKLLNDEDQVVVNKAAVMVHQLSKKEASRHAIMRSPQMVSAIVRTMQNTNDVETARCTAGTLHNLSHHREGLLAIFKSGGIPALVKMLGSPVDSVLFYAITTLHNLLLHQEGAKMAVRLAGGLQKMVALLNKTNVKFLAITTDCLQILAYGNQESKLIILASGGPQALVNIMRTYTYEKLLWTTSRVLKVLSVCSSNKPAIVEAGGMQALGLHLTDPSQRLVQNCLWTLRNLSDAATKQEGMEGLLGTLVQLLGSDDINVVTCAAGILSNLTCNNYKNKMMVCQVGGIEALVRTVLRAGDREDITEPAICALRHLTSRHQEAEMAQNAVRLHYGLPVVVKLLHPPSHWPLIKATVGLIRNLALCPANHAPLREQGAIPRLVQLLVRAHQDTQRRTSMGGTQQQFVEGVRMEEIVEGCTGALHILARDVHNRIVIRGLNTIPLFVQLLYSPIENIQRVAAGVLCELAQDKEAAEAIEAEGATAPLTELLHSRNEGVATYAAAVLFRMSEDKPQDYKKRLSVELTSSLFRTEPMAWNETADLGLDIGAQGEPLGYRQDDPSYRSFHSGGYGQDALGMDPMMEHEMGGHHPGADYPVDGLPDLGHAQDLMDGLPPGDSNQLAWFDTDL
UniProt Q14160: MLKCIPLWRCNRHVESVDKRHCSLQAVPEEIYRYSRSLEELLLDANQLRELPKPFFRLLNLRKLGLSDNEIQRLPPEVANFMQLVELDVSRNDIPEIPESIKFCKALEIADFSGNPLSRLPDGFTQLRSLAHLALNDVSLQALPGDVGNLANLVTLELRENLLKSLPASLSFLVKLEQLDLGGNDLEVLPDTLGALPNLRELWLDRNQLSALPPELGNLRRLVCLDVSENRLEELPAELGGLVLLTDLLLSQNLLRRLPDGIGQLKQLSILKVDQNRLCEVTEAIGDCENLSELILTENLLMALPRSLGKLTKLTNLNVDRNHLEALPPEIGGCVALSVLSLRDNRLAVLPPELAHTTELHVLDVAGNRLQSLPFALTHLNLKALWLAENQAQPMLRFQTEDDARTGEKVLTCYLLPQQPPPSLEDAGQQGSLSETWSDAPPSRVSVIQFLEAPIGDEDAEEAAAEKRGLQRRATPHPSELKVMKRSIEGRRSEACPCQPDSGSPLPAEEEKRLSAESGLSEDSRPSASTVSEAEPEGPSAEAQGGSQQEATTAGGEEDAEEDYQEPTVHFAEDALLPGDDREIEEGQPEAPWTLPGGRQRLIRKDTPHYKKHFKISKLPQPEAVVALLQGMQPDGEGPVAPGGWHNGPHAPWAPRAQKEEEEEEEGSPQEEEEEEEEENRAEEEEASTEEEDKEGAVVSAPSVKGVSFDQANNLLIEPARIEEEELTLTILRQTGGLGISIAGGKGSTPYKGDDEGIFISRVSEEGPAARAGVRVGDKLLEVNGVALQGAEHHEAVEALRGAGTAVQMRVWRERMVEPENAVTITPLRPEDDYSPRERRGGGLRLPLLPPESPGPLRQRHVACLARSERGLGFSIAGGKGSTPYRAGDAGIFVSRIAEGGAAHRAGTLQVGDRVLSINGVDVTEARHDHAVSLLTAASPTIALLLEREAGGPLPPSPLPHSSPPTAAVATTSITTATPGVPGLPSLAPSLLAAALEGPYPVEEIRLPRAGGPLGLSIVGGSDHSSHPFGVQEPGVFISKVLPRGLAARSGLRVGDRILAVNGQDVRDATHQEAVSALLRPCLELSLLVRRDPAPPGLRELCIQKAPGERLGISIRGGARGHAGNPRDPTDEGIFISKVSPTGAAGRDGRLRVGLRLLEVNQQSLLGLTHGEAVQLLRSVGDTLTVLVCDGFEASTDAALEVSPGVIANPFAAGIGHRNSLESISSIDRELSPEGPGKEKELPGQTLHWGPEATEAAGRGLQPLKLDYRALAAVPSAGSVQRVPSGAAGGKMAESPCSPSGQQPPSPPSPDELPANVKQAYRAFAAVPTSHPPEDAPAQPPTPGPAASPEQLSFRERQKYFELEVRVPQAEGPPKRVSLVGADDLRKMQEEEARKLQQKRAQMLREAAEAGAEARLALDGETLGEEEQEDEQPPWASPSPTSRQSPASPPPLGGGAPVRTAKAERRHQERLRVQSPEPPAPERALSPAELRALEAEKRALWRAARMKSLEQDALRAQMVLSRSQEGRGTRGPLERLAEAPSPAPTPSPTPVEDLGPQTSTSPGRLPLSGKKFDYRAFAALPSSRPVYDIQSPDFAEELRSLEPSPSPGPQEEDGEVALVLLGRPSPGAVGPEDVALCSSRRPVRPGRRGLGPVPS
UniProt P35221: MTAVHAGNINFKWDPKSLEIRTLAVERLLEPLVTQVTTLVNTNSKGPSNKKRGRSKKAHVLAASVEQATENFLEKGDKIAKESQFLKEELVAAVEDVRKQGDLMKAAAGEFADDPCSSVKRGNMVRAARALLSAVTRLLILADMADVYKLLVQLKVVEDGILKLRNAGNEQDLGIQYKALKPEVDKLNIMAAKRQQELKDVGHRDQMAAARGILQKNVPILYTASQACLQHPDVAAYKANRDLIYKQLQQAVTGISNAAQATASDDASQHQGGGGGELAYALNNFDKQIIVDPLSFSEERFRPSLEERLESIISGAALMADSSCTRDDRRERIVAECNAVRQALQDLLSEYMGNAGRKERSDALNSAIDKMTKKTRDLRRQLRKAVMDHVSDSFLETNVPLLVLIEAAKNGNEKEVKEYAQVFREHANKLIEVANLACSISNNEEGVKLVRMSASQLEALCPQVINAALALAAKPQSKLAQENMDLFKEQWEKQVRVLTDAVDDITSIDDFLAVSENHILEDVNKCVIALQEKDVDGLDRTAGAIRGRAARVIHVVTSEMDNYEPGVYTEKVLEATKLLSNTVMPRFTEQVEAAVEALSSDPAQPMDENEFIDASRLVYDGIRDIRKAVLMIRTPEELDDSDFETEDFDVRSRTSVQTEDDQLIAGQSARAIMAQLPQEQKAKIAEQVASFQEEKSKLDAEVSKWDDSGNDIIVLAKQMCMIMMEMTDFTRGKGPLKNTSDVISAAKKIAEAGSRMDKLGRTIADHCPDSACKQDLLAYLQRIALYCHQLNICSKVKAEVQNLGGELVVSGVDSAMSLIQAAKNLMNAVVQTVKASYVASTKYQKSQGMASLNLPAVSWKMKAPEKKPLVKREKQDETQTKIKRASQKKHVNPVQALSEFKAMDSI

Key:
Assay in all cases: co-IP; A549 cell lysates (parental, stably expressing GFP-Scrib or Neon-Lgl1 forms, or tet-shLgl1 without Dox) in NP-40 buffer (20 mM Tris pH 8, 150-200 mM NaCl, 0.5 mM EDTA, 1% NP-40, 1 mM DTT, 5% glycerol); antibody 2 h at 4°C, protein A/G beads, three washes, Western blot; IgG as negative …
[1] = biological target: β-catenin (endogenous) (human (endogenous in A549)) (UniProt P35222)
[2] = biological target: Scribble (endogenous) (human (endogenous in A549)) (UniProt Q14160)
[3] = biological target: T1, Lgl1 (endogenous) (human (endogenous in A549)) (UniProt Q15334)
T1 sequence: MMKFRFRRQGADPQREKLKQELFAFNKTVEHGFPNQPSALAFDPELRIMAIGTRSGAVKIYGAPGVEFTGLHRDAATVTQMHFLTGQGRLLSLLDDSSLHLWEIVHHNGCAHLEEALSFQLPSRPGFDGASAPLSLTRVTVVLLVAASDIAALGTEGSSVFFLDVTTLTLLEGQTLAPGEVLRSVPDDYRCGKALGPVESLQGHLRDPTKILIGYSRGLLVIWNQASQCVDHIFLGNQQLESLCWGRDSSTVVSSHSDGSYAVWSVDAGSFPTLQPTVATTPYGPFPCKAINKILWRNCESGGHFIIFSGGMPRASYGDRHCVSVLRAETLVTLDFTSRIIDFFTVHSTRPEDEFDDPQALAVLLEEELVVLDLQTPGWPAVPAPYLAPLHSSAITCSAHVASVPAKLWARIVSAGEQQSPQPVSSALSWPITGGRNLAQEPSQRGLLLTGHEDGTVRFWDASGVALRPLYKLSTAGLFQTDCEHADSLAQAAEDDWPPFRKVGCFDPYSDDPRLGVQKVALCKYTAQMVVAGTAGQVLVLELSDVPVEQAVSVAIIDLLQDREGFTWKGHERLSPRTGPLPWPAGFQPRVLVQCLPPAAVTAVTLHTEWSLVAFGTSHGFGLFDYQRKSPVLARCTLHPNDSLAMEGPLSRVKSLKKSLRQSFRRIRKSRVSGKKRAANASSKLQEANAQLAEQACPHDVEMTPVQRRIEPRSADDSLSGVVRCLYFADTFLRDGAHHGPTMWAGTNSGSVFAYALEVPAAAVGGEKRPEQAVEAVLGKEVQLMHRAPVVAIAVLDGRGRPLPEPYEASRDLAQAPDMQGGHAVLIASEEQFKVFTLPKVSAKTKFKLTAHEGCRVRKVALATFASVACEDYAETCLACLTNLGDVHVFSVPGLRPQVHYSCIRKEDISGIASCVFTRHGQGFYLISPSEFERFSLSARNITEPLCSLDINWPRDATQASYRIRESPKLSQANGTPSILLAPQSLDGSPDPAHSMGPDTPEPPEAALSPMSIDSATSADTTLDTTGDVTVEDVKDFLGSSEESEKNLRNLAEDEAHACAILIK

Neon-Lgl1-WT = biological target: T2, Neon-Lgl1-WT (UniProt Q80Y17)
T2 sequence: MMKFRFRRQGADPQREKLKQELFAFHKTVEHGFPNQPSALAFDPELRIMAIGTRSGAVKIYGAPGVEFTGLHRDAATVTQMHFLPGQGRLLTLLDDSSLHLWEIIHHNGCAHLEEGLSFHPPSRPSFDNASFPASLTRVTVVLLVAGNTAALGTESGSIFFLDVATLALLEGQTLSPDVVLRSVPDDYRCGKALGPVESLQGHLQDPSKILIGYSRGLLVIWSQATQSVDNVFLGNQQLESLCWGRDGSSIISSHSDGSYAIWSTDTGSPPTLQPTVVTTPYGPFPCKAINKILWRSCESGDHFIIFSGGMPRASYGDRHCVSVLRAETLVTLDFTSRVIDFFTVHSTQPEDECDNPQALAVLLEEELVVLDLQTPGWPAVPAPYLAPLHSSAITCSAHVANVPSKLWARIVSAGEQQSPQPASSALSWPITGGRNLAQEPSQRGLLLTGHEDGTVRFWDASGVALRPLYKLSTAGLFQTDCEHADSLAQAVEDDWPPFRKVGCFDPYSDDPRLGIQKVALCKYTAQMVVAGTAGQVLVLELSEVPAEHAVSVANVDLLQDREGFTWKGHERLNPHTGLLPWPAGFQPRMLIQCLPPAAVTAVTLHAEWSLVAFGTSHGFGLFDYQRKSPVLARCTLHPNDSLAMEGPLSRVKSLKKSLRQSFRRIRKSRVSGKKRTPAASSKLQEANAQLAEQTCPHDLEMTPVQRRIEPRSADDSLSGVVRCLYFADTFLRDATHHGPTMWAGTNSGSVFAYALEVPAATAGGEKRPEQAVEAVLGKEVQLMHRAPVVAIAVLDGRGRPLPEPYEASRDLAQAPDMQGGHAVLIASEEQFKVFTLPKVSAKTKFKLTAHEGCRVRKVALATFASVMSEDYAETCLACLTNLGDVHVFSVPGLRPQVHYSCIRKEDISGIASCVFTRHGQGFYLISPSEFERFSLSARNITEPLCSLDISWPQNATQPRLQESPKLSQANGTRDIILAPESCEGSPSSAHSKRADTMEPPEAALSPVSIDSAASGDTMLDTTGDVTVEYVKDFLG

Measured: binding

α-catenin (endogenous) (from UniProt P35221 1-906)
binds: all assays above
